These results are taken from publication PMC4336329 (PLoS ONE, 2015).

The whole screen tested about 310,000 compounds, of which about 2,200 (0.71%) showed an effect of 50% or more. The effect is printed as a negative number. This is one part of the list.

human ether-à-go-go-related gene (hERG) potassium channel, sequence (Q12809 whole entry, looked up): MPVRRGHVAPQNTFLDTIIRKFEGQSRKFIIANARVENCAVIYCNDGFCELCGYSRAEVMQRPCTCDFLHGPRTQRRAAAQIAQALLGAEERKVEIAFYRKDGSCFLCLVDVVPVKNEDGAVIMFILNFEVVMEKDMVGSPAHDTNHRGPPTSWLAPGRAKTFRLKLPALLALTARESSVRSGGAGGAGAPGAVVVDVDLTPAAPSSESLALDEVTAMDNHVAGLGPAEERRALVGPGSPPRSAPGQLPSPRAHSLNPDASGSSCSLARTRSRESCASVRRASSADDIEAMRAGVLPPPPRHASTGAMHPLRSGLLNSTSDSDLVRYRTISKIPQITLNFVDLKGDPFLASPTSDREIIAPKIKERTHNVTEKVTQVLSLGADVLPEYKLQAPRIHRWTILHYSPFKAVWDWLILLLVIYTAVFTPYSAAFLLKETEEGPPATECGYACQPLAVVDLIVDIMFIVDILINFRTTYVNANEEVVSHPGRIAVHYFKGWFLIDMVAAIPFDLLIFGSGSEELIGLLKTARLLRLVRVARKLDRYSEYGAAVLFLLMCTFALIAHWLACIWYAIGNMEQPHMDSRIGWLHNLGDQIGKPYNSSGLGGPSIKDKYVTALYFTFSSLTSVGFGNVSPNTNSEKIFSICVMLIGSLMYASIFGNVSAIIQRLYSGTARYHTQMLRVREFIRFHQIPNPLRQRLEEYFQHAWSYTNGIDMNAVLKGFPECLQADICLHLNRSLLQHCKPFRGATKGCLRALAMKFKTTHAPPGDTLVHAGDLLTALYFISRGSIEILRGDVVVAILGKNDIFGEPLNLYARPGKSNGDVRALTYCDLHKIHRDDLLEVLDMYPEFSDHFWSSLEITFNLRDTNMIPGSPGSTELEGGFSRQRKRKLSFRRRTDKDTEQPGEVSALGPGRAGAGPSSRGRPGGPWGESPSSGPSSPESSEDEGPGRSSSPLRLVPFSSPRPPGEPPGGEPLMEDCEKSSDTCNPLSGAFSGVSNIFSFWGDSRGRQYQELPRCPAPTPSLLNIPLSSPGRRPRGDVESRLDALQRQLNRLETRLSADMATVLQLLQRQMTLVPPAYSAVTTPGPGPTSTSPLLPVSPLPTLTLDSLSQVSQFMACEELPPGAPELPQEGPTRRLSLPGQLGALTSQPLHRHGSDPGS

This assay has as its target human ether-à-go-go-related gene (hERG) potassium channel (human, UniProt Q12809). The assay is described as follows: primary screen, population patch clamp on CHO cells stably expressing hERG.
For `COCC(C)NC(=O)c1ccc(CN2CCc3ccccc3C2)cc1` (stereo not shown), the “hERG current change (%, negative = inhibition) at 1uM” value turned out to be 3.65%. As for `CCC(=O)N(Cc1cc2ccc(C)cc2n2nnnc12)C1CCCCC1`, the “hERG current change (%, negative = inhibition) at 1uM” value came out at 7.53%.

`Cc1cccc2cc(/C=C3\N=C(c4ccccc4)OC3=O)c(N3CCOCC3)nc12`: the “hERG current change (%, negative = inhibition) at 1uM” value is listed as 4%.

As to `COc1ccc(/C=C2\C(=O)N(c3c(Cl)cc(Cl)cc3Cl)N=C2NC(=O)c2cccc([N+](=O)[O-])c2)cc1`, the “hERG current change (%, negative = inhibition) at 1uM” value worked out at 15.7%. With `CCC(C)c1ccccc1NC(=O)c1cc2cccc([N+](=O)[O-])c2[nH]1` (stereo not shown) the figure was 5.97%.

In the case of `CSc1cccc(NC(=O)COc2ccccc2C)c1`, the “hERG current change (%, negative = inhibition) at 1uM” value was 16.5%. In the case of `Cc1cc(OCC(=O)C(C)(C)C)c2c(C)c(C)c(=O)oc2c1`, the “hERG current change (%, negative = inhibition) at 1uM” value turned out to be 21.1%. With `O=C(NCCN1CCOCC1)c1noc2c1CCc1ccccc1-2` the figure was -12.1%; with `CCOc1c(Cl)cc(C(=O)Nc2cccc(C(=O)O)c2)cc1Cl`, 10.9%; with `COc1ccccc1-c1noc(-c2ccccc2C(=O)Nc2ccccc2)n1`, 15.6%. For `Cc1cnnn1-c1ccc([N+](=O)[O-])cc1`, the “hERG current change (%, negative = inhibition) at 1uM” value came out at 17.6%. Regarding `CC(C)(C)NC(=O)c1ccc2c(c1)C(=O)N(C1CCCCC1)C2=O`, the “hERG current change (%, negative = inhibition) at 1uM” value is given as 0.484%. Turning to `CCN1CC(CN(C)Cc2nc(-c3ccc(C(F)(F)F)cc3)oc2C)CC1=O` (stereo not shown), the “hERG current change (%, negative = inhibition) at 1uM” value is -10.2%.

As for `Cc1ccc2[nH]c3c(c2c1)CN(C(=O)CN1CC(C)OC(C)C1)CC3` (stereo not shown), the “hERG current change (%, negative = inhibition) at 1uM” value amounted to 5.28%. In the case of `Cc1nc2sc(C(c3ccco3)N3CCN(c4ccccc4F)CC3)c(O)n2n1` (stereo not shown), the “hERG current change (%, negative = inhibition) at 1uM” value is -3.16%.

On to `COc1cccc(NC(=O)CN(C)CC(=O)NCc2ccc3c(c2)OCO3)c1`, for which the “hERG current change (%, negative = inhibition) at 1uM” value is reported as 2.61%. To `O=C(CCS(=O)(=O)c1ccccc1Cl)NCc1ccc(F)cc1` belongs -6.52%; to `CSc1nnc(SCC#N)s1`, 14.2%. On to `CC(C)=CCN1CCN(Cc2ccoc2)CC1CCO` (stereo not shown), for which the “hERG current change (%, negative = inhibition) at 1uM” value is 10.5%.

Take `CCOC(=O)c1c(-c2ccccc2)csc1NC(=O)c1nn(CC)cc1Br`: the “hERG current change (%, negative = inhibition) at 1uM” value came to 5.3%. To `COCCNC(=O)CN1C(=O)COc2ccc(S(=O)(=O)N3CCCCCC3)cc21` belongs 16%; to `CC(C)(C)c1cc(C(=O)Nc2cccc3ccccc23)ccn1`, 9.94%. To `COCCCNC(=O)CC(C)c1ccccc1` (stereo not shown) belongs 8.27%. Regarding `CCC(C(=O)NC1CCCC1)n1c(SCc2cccc(C)c2)nc2ccncc21` (stereo not shown), the “hERG current change (%, negative = inhibition) at 1uM” value came to 6.63%. With `Cc1ccc(OCC(=O)Nc2ccc3c4c(cccc24)CC3)c(C)c1` the figure was 3.9%. Consider `Nc1nc(NCc2ccco2)nc(N2CCCCCC2)c1[N+](=O)[O-]`, for which the “hERG current change (%, negative = inhibition) at 1uM” value is on record as -4.52%. In the case of `COc1ccc(CN2CCNC(=O)C2CC(=O)N2CCCCO2)cc1OC` (stereo not shown), the “hERG current change (%, negative = inhibition) at 1uM” value stood at 7.37%. To `COc1ccc(OC)c(NC(=S)N2CCc3ccccc3C2)c1` belongs -1.57%; to `O=C(NN1C(=O)/C(=C/c2ccc(O)c(O)c2)SC1=S)c1ccccc1`, 7.63%. As for `Cc1c(C(=O)N2CCC(N3CCSCC3)CC2)oc2c(F)cccc12`, the “hERG current change (%, negative = inhibition) at 1uM” value turned out to be 2.81%. Regarding `CCO/N=C(\C)c1c(O)cc(C(C)C)n(-c2ccccc2)c1=O`, the “hERG current change (%, negative = inhibition) at 1uM” value turned out to be 7.64%. To `COc1ccc(CCNC(=O)CSc2nc(C)cs2)cc1` belongs 9.37%. With `CN(CC(=O)NC1CC1)S(=O)(=O)c1ccc(F)cc1` the figure was 12.1%; with `CCN(Cc1ccccc1)C(=O)c1cccc(OC2CCN(C(=O)C3CC3)CC2)c1`, 0.806%; with `CC1(C)Cc2ccccc2C2CC(O)C(=O)N21` (stereo not shown), 14.9%.

Regarding `CN(C)S(=O)(=O)c1ccc(C(=O)Nc2nnc(SCc3cccc(F)c3)s2)cc1`, the “hERG current change (%, negative = inhibition) at 1uM” value is reported as 3.51%. To `Cc1cccc(N2CCN(S(=O)(=O)c3ccc4c(c3)CCCN4C(=O)C3CCC3)CC2)c1C` belongs -7.83%; to `COc1ccccc1CCNC(=O)c1nc(-c2cccs2)no1`, 7.02%.

`O=C(Nc1cccc(NC(=O)c2ccccc2Cl)c1)c1ccco1`: the “hERG current change (%, negative = inhibition) at 1uM” value was found to be 14.6%.

On to `Cn1nc(-c2ccccc2)c(CO)c1Oc1cccc(C(F)(F)F)c1`, for which the “hERG current change (%, negative = inhibition) at 1uM” value is 5.55%. Regarding `COC(=O)c1ccccc1NC(=O)N[C@@H](C)C(=O)OC`, the “hERG current change (%, negative = inhibition) at 1uM” value is on record as 6.02%.

For `COC(=O)c1ccc(CNC(=O)/C=C/c2cc([N+](=O)[O-])ccc2OC(F)F)cc1`, the “hERG current change (%, negative = inhibition) at 1uM” value was 2.87%. To `CN(C)CC1CSCCC1(O)c1ccc(C(F)(F)F)cc1.Cl` (stereo not shown) belongs 10.3%; to `CC(C)(C)n1nnnc1C(c1cc2cc3c(cc2[nH]c1=O)OCCO3)N1CCSCC1` (stereo not shown), 10.9%; to `CCN(CC)C(=O)c1sc2nc(N3CCOCC3)c3c(c2c1N)CCCC3`, 9.65%. To `Cc1ccc(S(=O)(=O)N2[C@@H](c3ccccc3)C(C(=O)O)=CC[C@H]2c2cccc(C)c2)cc1` belongs 16.8%; to `COc1ccc(Nc2cc(Cl)ccc2C(=O)O)cn1`, 0.0478%; to `Cc1cnc(Nc2nc3ccccc3o2)nc1C(=O)Nc1cccc(C(F)(F)F)c1`, -9.5%. With `N#CCCCCN1CCCC1` the figure was 16%; with `CC(=O)Nc1ccc(Sc2ccccc2C(=O)O)c(C(=O)O)c1`, 16.9%.

With `O=c1cc(CN2CCOCC2)c2cc(Cl)c(O)cc2o1`, the “hERG current change (%, negative = inhibition) at 1uM” value is 10.3%. To `Cc1ccc(-c2nc3c4ccccc4ccn3c2CN2CCCCC2)cc1.Cl` belongs 3.62%; to `COc1cccc(-c2c(C(=O)N/N=C(\C)c3ccncc3)nnn2-c2nonc2N)c1`, -1.09%; to `Cc1ccc(NC2CCCN(C(=O)c3ccccc3-c3ncc[nH]3)C2)cc1C` (stereo not shown), 9.64%. With `CC(=O)CC(=O)Nc1ccn(-c2ccccc2)n1` the figure was 4.69%. To `Cc1cccc(NC(=O)CCN2CCC(C)CC2)c1` belongs 11.5%; to `CC(=O)Nc1cc(-c2ccccc2)nn1Cc1ccc(Cl)cc1`, 15%; to `Cc1onc(-c2ccccc2Cl)c1C(=O)OCC(=O)c1c(N)n(C)c(=O)n(C)c1=O`, 6.3%.
